Assay [1] relates to methicillin-resistant Staphylococcus aureus (MRSA) strain BAA-1707. As to the kind of experiment: Mouse model of Staphylococcus aureus systemic infection (peritonitis model). The class given is in vivo. As to the method: Survival was monitored for 72 h post-infection. […] The effective dose 50 (ED50) was defined as the test-compound dose resulting in 50% survival at 72 h (calculated using the probit method).

Assay [2] shares this test system. As to the kind of experiment: Mouse model of Staphylococcus aureus lung infection (neutropenic pneumonia model). The settings on record: neutropenic mice, lung burden at 24 h.
[3] abbreviates: mice, intravenous single dose 0 h post-infection, 50% survival at 72 h, read-out: in vivo antibacterial activity mouse MRSA peritonitis ED50.

Where two headings read alike, the source gives them in different places.

`COC(=O)N/C=C/CCC(C)c1cc(O)c(C(=O)/C(C)=C/c2cnc(Oc3ccc(F)cc3)s2)c(=O)o1` (centres unmarked) [Example 2]: the median effective dose (ED50) (usually the midpoint of the dose-response relation) in assay [1] (setting [3]) is 25 mg/kg.
Same read-out and setting: to `COC(=O)N/C=C/CCCc1cc(O)c(C(=O)/C(C)=C/c2cnc(Oc3ccc(F)cc3)s2)c(=O)o1` [Example 6] belongs 15 mg/kg; to `[2H]C([2H])([2H])OC(=O)N/C=C/CCC(C)c1cc(O)c(C(=O)/C(C)=C/c2cnc(Oc3ccc(F)cc3)s2)c(=O)o1` (centres unmarked) [Example 5], 15 mg/kg.
Same read-out and setting: to `[2H]C([2H])([2H])OC(=O)N/C=C/CCCc1cc(O)c(C(=O)/C(C)=C/c2cnc(Oc3ccc(F)cc3)s2)c(=O)o1` [Example 8] belongs 13 mg/kg; to `[2H]C([2H])([2H])OC(=O)N/C=C/CCCc1cc(O)c(C(=O)/C(C)=C/c2sc(Oc3ccc(F)cc3)nc2C)c(=O)o1` [Example 7], 10 mg/kg; to `COC(=O)N/C=C/CCC(C)c1cc(O)c(C(=O)/C(C)=C/c2sc(Oc3ccc(F)cc3)nc2C)c(=O)o1` (centres unmarked) [Example 1], 20 mg/kg.
As for `COC(=O)N/C=C/CCCc1cc(O)c(C(=O)/C(C)=C/c2sc(Oc3ccc(F)cc3)nc2C)c(=O)o1` [Example 3], the ED50 in assay [1] (setting [3]) was 11 mg/kg.
For `[2H]C([2H])([2H])OC(=O)N/C=C/CCCc1cc([O-])c(C(=O)/C(C)=C/c2cnc(Oc3ccc(F)cc3)s2)c(=O)o1.[Na+]` [Example 9], the ED50 in assay [1] (iv, read-out: in vivo antibacterial activity mouse MRSA peritonitis ED50) is 10 mg/kg; in assay [1] (po, read-out: in vivo antibacterial activity: mouse MRSA peritonitis ED50) it was 10 mg/kg. In addition, the “in vivo antibacterial activity: mouse MRSA pneumonia ED(2 log)” value in assay [2] (intravenous single dose 1 h post-infection) is 25 mg/kg; in assay [2] (oral single dose 1 h post-infection), 100 mg/kg.

The record behind these values is patent US11685723B2, “Antibacterial agents: O-alkyl-deuterated pyronins” (Rutgers, the State University of New Jersey, priority 2018, dated 2023).
